Laboratory results: paper PMC10919853
Read-outs that look alike come from different tables or passages of the source. No constants are given. Whether binding was seen depends on the method and setting. In cells and extracts the contact can be indirect. Some results given as binding are weak or reduced against the parent protein; the word gives no strength. For some of these results: Where a sequence is shown, tags or fusion partners need not be part of it.

Experiments:
[1] = target: FLAG-Nav1.5 (pcDNA3.1-3X-FLAG-SCN5A-WT) (human) (UniProt Q14524); test: co-IP; anti-FLAG M2 magnetic beads; lysates (1% digitonin) of tsA201 expressing FLAG-Nav1.5, with non-tagged Nav1.5 as control, 48 h after transient overexpression of one HA-tagged 14-3-3 isoform; beads washed with TBS; immunoblot
[2] = target: Nav1.5 (non-tagged, pcDNA3.1-SCN5A-WT) (human) (UniProt Q14524); test: co-IP; nProtein A Sepharose beads pre-coupled with anti-Nav1.5 antibody; lysates of tsA201 cells 48 h after transient co-expression of Nav1.5 with empty vector, HA-14-3-3σ or HA-14-3-3η; immunoblot
[3] = target: FLAG-Nav1.5 (pcDNA3.1-3X-FLAG-SCN5A-WT) (human) (UniProt Q14524); test: co-IP; anti-FLAG M2 magnetic beads; lysates (1% digitonin) of tsA201 expressing FLAG-Nav1.5, with non-tagged Nav1.5 as control, 48 h after transient overexpression of one HA-tagged 14-3-3 isoform; beads washed with TBS; immunoblot; remark: listed apart in the source

Row | Molecule | binding [1] | binding [2] | binding [3]
1 | HA-tagged 14-3-3 β/α (pcDNA3-HA-YWHAB-WT) (from UniProt P31946-1 1-246) | no binding |  | 
2 | HA-tagged 14-3-3 ε (pcDNA3-HA-YWHAE-WT) (from UniProt P62258-1 1-255) | no binding |  | 
3 | HA-tagged 14-3-3η (pcDNA3-HA-YWHAH-WT) (protein, UniProt Q04917 1-246) MGDREQLLQRARLAEQAERYDDMASAMKAVTELNEPLSNEDRNLLSVAYKNVVGARRSSWRVISSIEQKTMADGNEKKLEKVKAYREKIEKELETVCNDVLSLLDKFLIKNCNDFQYESKVFYLKMKGDYYRYLAEVASGEKKNSVVEASEAAYKEAFEISKEQMQPTHPIRLGLALNFSVFYYEIQNAPEQACLLAKQAFDDAIAELDTLNEDSYKDSTLIMQLLRDNLTLWTSDQQDEEAGEGN |  | binds weakly | binds weakly
4 | α1-syntrophin (protein, UniProt Q13424 1-505) MASGRRAPRTGLLELRAGAGSGAGGERWQRVLLSLAEDVLTVSPADGDPGPEPGAPREQEPAQLNGAAEPGAGPPQLPEALLLQRRRVTVRKADAGGLGISIKGGRENKMPILISKIFKGLAADQTEALFVGDAILSVNGEDLSSATHDEAVQVLKKTGKEVVLEVKYMKDVSPYFKNSTGGTSVGWDSPPASPLQRQPSSPGPTPRNFSEAKHMSLKMAYVSKRCTPNDPEPRYLEICSADGQDTLFLRAKDEASARSWATAIQAQVNTLTPRVKDELQALLAATSTAGSQDIKQIGWLTEQLPSGGTAPTLALLTEKELLLYLSLPETREALSRPARTAPLIATRLVHSGPSKGSVPYDAELSFALRTGTRHGVDTHLFSVESPQELAAWTRQLVDGCHRAAEGVQEVSTACTWNGRPCSLSVHIDKGFTLWAAEPGAARAVLLRQPFEKLQMSSDDGASLLFLDFGGAEGEIQLDLHSCPKTIVFIIHSFLSAKVTRLGLLA |  | binds | 
5 | HA-tagged 14-3-3 γ (pcDNA3-HA-YWHAG-WT) (protein, UniProt P61981 1-247) MVDREQLVQKARLAEQAERYDDMAAAMKNVTELNEPLSNEERNLLSVAYKNVVGARRSSWRVISSIEQKTSADGNEKKIEMVRAYREKIEKELEAVCQDVLSLLDNYLIKNCSETQYESKVFYLKMKGDYYRYLAEVATGEKRATVVESSEKAYSEAHEISKEHMQPTHPIRLGLALNYSVFYYEIQNAPEQACHLAKTAFDDAIAELDTLNEDSYKDSTLIMQLLRDNLTLWTSDQQDDDGGEGNN |  |  | no binding
6 | HA-tagged 14-3-3θ (pcDNA3-HA-YWHAQ-WT) (protein, UniProt P27348 1-245) MEKTELIQKAKLAEQAERYDDMATCMKAVTEQGAELSNEERNLLSVAYKNVVGGRRSAWRVISSIEQKTDTSDKKLQLIKDYREKVESELRSICTTVLELLDKYLIANATNPESKVFYLKMKGDYFRYLAEVACGDDRKQTIDNSQGAYQEAFDISKKEMQPTHPIRLGLALNFSVFYYEILNNPELACTLAKTAFDEAIAELDTLNEDSYKDSTLIMQLLRDNLTLWTSDSAGEECDAAEGAEN |  |  | no binding
